SMILES strings stand for the structures. “And” between values parts separate entries of the source, which are not always exact repeats. Identical values can stand only once. This continues a long series; more values of the same kind are listed elsewhere.

The record followed here is publication PMC10281575, “PfCRT mutations conferring piperaquine resistance in falciparum malaria shape the kinetics of quinoline drug binding and transport” (PLOS Pathogens, 2023).

Assay [1] addresses T1, PfCRT^Dd2_F145I (Plasmodium falciparum, UniProt Q8IBZ9, A220S/F145I/I356T/K76T/M74I/N326S/N75E/Q271E/R371I).
T1 construct: expressed in transfected cells; host or cells: Xenopus laevis oocytes injected with in vitro transcribed RNA (pSP64T)
T1 sequence (Q8IBZ9 1-424 M74I/N75E/K76T/F145I/A220S/Q271E/N326S/I356T/R371I): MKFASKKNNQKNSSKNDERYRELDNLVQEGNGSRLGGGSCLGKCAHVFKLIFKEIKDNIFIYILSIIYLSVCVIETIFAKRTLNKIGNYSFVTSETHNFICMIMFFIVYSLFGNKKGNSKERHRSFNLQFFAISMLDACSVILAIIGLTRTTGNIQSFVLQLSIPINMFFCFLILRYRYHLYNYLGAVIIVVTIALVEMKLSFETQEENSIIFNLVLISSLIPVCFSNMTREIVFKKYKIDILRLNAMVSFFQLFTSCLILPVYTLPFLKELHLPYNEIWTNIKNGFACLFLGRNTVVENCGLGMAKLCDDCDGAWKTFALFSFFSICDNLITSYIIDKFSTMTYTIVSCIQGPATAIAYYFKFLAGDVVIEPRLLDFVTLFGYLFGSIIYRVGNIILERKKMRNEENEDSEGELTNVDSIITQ
The assay can be described thus: Competition kinetics of drug transport (radiolabeled substrate plus cold inhibitor), PfCRT^Dd2_F145I-expressing oocytes. Format: cell-based. As for the experimental part:
To further characterize the kinetic relationship between CQ and PPQ, we performed a series of competition reactions. To this end, water-injected oocytes and PfCRT-expressing oocytes were incubated in medium containing one of seven concentrations of radio-labeled CQ and one of six concentrations of cold PPQ for 60 min before the amount of radio-labeled CQ uptake was determined. The rate of PfCRT-mediated CQ uptake was calculated for each condition by subtracting the corresponding value obtained for water-injected oocytes from those of PfCRT-expressing oocytes. The results were analyzed as a function of the CQ concentration (Fig 4A) and 16 different models of substrate competition were globally fit to the data by the least-squares method, using Python. The models were ranked, according to their Akaike information criterion difference (ΔAICC) and their Akaike weight (Fig 4B), with the most plausible model being the one with the lowest AICC (ΔAICC = 0) and the highest Akaike weight.
A complementary set of experiments was undertaken to investigate the kinetic mechanism by which PfCRT^Dd2_F145I accepts CQ and PPQ (Fig 6). […] These included a global fit of the substrate competition data to the 16 kinetic models (Fig 6), analysis of the secondary plots (Vmax,app and Vmax,app/KM,app as a function of the inhibitor concentration) (Fig 7A), a fractional velocity plot analysis (Fig 7B) and a comparison of the experimental data with the modelled data using the noncompetitive inhibition equation (Fig 7C to 7F). […] The fractional velocity plot illustrated the partial character of the noncompetitive inhibition mechanism by yielding a partiality factor β^CQ = 0.31 ± 0.04, by which PPQ reduces the transport velocity of CQ (Fig 7B). […] A 3D model of the kinetics between PfCRT^Dd2_F145I, CQ and PPQ, and analyses of the residuals as a function of substrate and inhibitor concentrations confirmed that the model was also an appropriate explanation for the mutant transporter (Fig 7C to 7F).
(§1) Drug transport assays were performed as previously described. Briefly, measurements of radiolabeled drug uptake were made over 1 h, unless otherwise specified. […] Where specified, one or more unlabeled drugs were also present at the indicated concentrations. The direction of drug transport in the assays is from the extracellular medium (pH 6) into the oocyte cytosol (pH 7.2), which corresponds to the efflux of CQ or PPQ from the acidic digestive vacuole (pH 5.2) into the parasite cytosol (pH 7.2). The uptake assays were terminated by removing the oocytes from the reaction medium and washing them three times with 2 mL of ice-cold ND96 buffer. Each oocyte was transferred to a separate scintillation vial and lysed by the addition of 200 μL of a 5% SDS solution. The radioactivity in the sample was measured using a liquid scintillation analyser Tri-Carb 4910 TR (PerkinElmer). Water-injected oocytes were analyzed in parallel as a negative control. The buffer from each condition was measured in duplicate in parallel to each experiment to transform counts per minute into pmol of drug. Drug uptake attributable to PfCRT was determined by subtracting the background uptake from water-injected oocytes from that of PfCRT-expressing oocytes. In all cases, at least three independent experiments were performed on oocytes from different frogs, and for each condition in an experiment, measurements were made from 10 oocytes per treatment.
The following equations were adopted from Segel (1993), and the reader is referred to that text for the assumptions made in the author’s approach in the derivation of each equation [31]. The concentration of substrate is denoted as [S1] and the concentration of the inhibiting substrate is denoted as [S2]. KS1 and KS2 are the dissociation constants for the respective substrate-protein complexes.
Analyses of the kinetic data were performed using SigmaPlot version 13.0 and Python. […]

For assay [2], the target named is T1, PfCRT^Dd2_F145I. Nature of the assay: Verapamil inhibition of PfCRT-mediated CQ and PPQ transport in oocytes, PfCRT^Dd2_F145I. The following applies: individual replicates (S3 Fig). The format is cell-based. On the procedure: In all cases, the PfCRT-mediated CQ and PPQ transport was inhibited in the presence of 100 μM verapamil (S3 Fig).
as §1
Supplementary file ppat.1011436.s006.tif: S3 Fig Verapamil inhibits PfCRT-mediated transport of CQ and PPQ. […] Left panels, data is shown as individual biological replicates (coloured symbols) overlaid onto bars representing the Mean ± S.E.M. (error bars). A one-tailed Student’s t-test was performed between untreated (no VP) and treated (+ 100 μM VP) samples, and the obtained p values are shown. Right panels, the uptake in VP-treated samples was divided by the uptake in their corresponding untreated pairs and subtracted from 100% to get the percentage of uptake inhibition mediated by the presence of 100 μM verapamil in the extracellular medium. Error bars are S.E. (TIF) Click here for additional data file.

Regarding `CCN(CC)CCCC(C)Nc1ccnc2cc(Cl)ccc12` (centres unmarked) [CQ, chloroquine], the “PfCRTDd2_F145I-mediated CQ transport” value in assay [1] (10 µM CQ, 50 µM PPQ) is recorded as 0.41 pmol oocyte-1 h-1; in assay [1] (50 µM CQ, 500 µM PPQ) it was 2.17 pmol oocyte-1 h-1; in assay [1] (200 µM CQ, 0 µM PPQ), 11.4 pmol oocyte-1 h-1; in assay [1] (200 µM CQ, 500 µM PPQ), 6.33 pmol oocyte-1 h-1; in assay [1] (300 µM CQ, 0 µM PPQ), 18.53 pmol oocyte-1 h-1; in assay [1] (300 µM CQ, 500 µM PPQ), 6.83 pmol oocyte-1 h-1. Besides, the “PfCRTDd2_F145I-mediated CQ transport” value was 22.31 pmol oocyte-1 h-1 in assay [1] (400 µM CQ, 0 µM PPQ); 20.2 pmol oocyte-1 h-1 in assay [1] (500 µM CQ, 0 µM PPQ); 10.24 pmol oocyte-1 h-1 in assay [1] (500 µM CQ, 200 µM PPQ); 2.910 pmol oocyte-1 h-1 and 2.290 pmol oocyte-1 h-1 and 0.440 pmol oocyte-1 h-1 and 2.900 pmol oocyte-1 h-1 and 0.840 pmol oocyte-1 h-1 in assay [2] (50 µM CQ + 100 µM VP); 3.800 pmol oocyte-1 h-1 and 4.280 pmol oocyte-1 h-1 and 2.840 pmol oocyte-1 h-1 in assay [2] (50 µM CQ).
Turning to `Clc1ccc2c(N3CCN(CCCN4CCN(c5ccnc6cc(Cl)ccc56)CC4)CC3)ccnc2c1` [PPQ, piperaquine], the “PfCRTDd2_F145I-mediated PPQ transport” value in assay [1] (10 µM PPQ, 400 µM CQ) is 10.41 pmol oocyte-1 h-1; in assay [1] (50 µM PPQ, 400 µM CQ), 21.35 pmol oocyte-1 h-1 and 27.84 pmol oocyte-1 h-1; in assay [1] (100 µM PPQ, 0 µM CQ), 56.31 pmol oocyte-1 h-1; in assay [1] (100 µM PPQ, 400 µM CQ) it was 60.06 pmol oocyte-1 h-1 and 41.63 pmol oocyte-1 h-1; in assay [1] (200 µM PPQ, 400 µM CQ) it was 76.13 pmol oocyte-1 h-1 and 65.94 pmol oocyte-1 h-1; in assay [1] (300 µM PPQ, 0 µM CQ), 91.14 pmol oocyte-1 h-1. Moreover, the “PfCRTDd2_F145I-mediated PPQ transport” value is 72.65 pmol oocyte-1 h-1 and 78.11 pmol oocyte-1 h-1 in assay [1] (300 µM PPQ, 400 µM CQ); 105.11 pmol oocyte-1 h-1 in assay [1] (400 µM PPQ, 0 µM CQ); 66.95 pmol oocyte-1 h-1 in assay [1] (400 µM PPQ, 400 µM CQ); 79.05 pmol oocyte-1 h-1 in assay [1] (500 µM PPQ, 0 µM CQ); 119.38 pmol oocyte-1 h-1 in assay [1] (500 µM PPQ, 50 µM CQ); 120.41 pmol oocyte-1 h-1 in assay [1] (500 µM PPQ, 200 µM CQ). Besides, the “PfCRTDd2_F145I-mediated PPQ transport” value in assay [1] (500 µM PPQ, 400 µM CQ) is 83 pmol oocyte-1 h-1 and 98.45 pmol oocyte-1 h-1; in assay [2] (50 µM PPQ + 100 µM VP), 7.33 pmol oocyte-1 h-1 and 14.31 pmol oocyte-1 h-1 and 22.24 pmol oocyte-1 h-1 and 5.89 pmol oocyte-1 h-1 and 25.58 pmol oocyte-1 h-1; in assay [2] (50 µM PPQ), 75.44 pmol oocyte-1 h-1 and 27.59 pmol oocyte-1 h-1 and 75.68 pmol oocyte-1 h-1 and 39.58 pmol oocyte-1 h-1 and 36.72 pmol oocyte-1 h-1 and 42.92 pmol oocyte-1 h-1.
